Hit rate of the full screen: of about 4,800 compounds, about 420 (8.8%) showed an effect of 50% or more. Some of the results follow.
What follows are molecules tested on Plasmodium falciparum (assay: Confirmatory screen in NF54 nanoGlo assay, in single point, at 2uM, 72h). Settings: timepoint 72 hour.
Type: functional, Erythrocyte

| Structure (SMILES) | % Inhibition |
| --- | --- |
| Cc1ccc(F)cc1NC(=O)c1nnn(CC(=O)NCc2ccccc2Cl)c1C | -10% |
| Cc1cc(C(=O)Nc2nc(-c3ccc4c(c3)CCC4)n[nH]2)no1 | 4% |
| CCC(C)(C(=O)NC1CCCC1)N(C(=O)c1cccs1)C1CCCO1 (stereo unspecified) | -11% |
| COCc1nncn1C1CN(C(=O)Cc2ccccc2C)C1 | -13% |
| O=C(NC1CCCC1)c1cc2c(Cl)ccc3c2n1CCO3 | -2% |
| CC(C)(CNC(=O)[C@](C)(N)c1ccccc1)C(=O)O | -11% |
| Cn1cc(CCn2nccc2-c2ccc(F)c(Cl)c2)cn1 | -7% |
| O=C(NC(c1ccccc1)C1CCOC1)c1cn(C2CCOC2)nn1 (stereo unspecified) | -1% |
| Cc1ccc(NC(=O)[C@@H]2CC(=O)N=C(N3CCOCC3)N2)cc1Cl | 5% |
| COC1(CNC(=O)NC2CC=CC2)CCC1 | 5% |
| CC1CC(C)CC2(C1)NC(=O)N(CCC1OCCO1)C2=O (stereo unspecified) | -1% |
| CN(C)c1nc(CN2CCC[C@H](c3n[nH]c(-c4ccccc4)n3)C2)ns1 | -1% |
| CC1CN(C(=O)c2n[nH]c3ccccc23)CC(C)O1 (stereo unspecified) | -4% |
| CC(C)(C)CC(=O)Nc1ccccc1C(N)=O | 6% |
| COc1cc(NC(=O)N2CC(c3noc(-c4ccccc4)n3)C2)cc(OC)c1OC | 2% |
| O=C(C[C@H]1CCN(C(=O)c2cc(F)ccc2F)C1)NC1CC1 | -2% |
| Cn1nnnc1NC/C=C/c1ccccc1 | -4% |
| O=C1CN(CC[C@H]2CCCO2)CCN1c1cccs1 | -14% |
| Cc1ccc(CN2CCC3(CC2)C[C@@H](C(=O)NCc2ccccn2)N(C)C3)s1 | 0% |
| C[C@H](NC(=O)CC1(C)CCCCC1)c1cnn(C)c1 | -9% |
| CCC(=O)N(Cc1ccc(-c2ccc(Cl)cc2)o1)[C@H]1CCS(=O)(=O)C1 | 38% |
| O=C1CN(C(=O)Cn2c(-c3ccccc3)cc3ccccc32)c2ccccc2N1 | 15% |

| Structure (SMILES) | % Inhibition |
| --- | --- |
| O=C(CN1CCN(c2ccccc2F)CC1)c1ccc2c(c1)OCO2 | -1% |
| O=S(=O)(Cc1cc(Cl)cc(Cl)c1)NCCCCn1ccnc1 | -6% |
| COc1cc(CN(C)[C@H]2CCc3nnc(C4CCOCC4)n3CC2)cc(OC)c1 | -9% |
| O=C1CC(C(=O)N2CCOCC2)C(c2ccc3c(c2)OCCO3)O1 (stereo unspecified) | 5% |
| NC[C@H]1CN(CCc2cccc(Cl)c2)C(=O)O1 | -8% |
| O=C1CC(c2cccc(Br)c2)N(S(=O)Oc2ccccc2)c2ccccc21 (stereo unspecified) | 4% |
| Cc1csc([C@@H]2CN(c3cnccn3)CCO2)n1 | 1% |
| CC(C)Nc1nc2nonc2n2cnnc12 | 69% |
| Cc1nc(-c2ccccc2)cc2nn(CC(=O)N3CCOCC3)c(=O)n12 | -11% |
| COc1ccc(CN2CCC(C(=O)NCCCN3CCOCC3)CC2)c(OC)c1 | 4% |
| O=C(Nc1cccc2cccnc12)c1ccccn1 | 80% |
| Cc1nccn1-c1ncc(NC(=O)Nc2ccccc2)cn1 | 3% |
| CCCCC1NC(=O)N([C@@H]2CCC(=O)N[C@H]2c2ccccc2)C1=O (stereo partly specified) | 2% |
| O=C(Nc1ccc(Cl)cc1)n1c(=S)oc2cc(Br)ccc21 | -5% |
| CN(C)c1cc(C(=O)N2CCOC3CCCCC32)ccn1 (stereo unspecified) | 0% |
| Cc1ccc(NC(=O)COC(=O)c2ccc3c(c2)N=S=N3)cc1 | -9% |
| O=C(O)c1cc(N2CCN(c3ccccc3F)CC2)ccc1NC(=O)C1CCC1 | -5% |
| CC1(C)CC[C@H](NC(=O)CCNc2ncccn2)c2ccccc21 | -8% |
| COc1ccccc1CNCCNC(=O)c1ccncc1 | 8% |
| O=S(=O)(c1ccc(F)c(Cl)c1)N1CC[C@H](Oc2ccncc2Cl)C1 | 75% |
| Nc1ccccc1-c1nc(Nc2ncccn2)n[nH]1 | 2% |
| CC(=O)c1ccc(S(=O)(=O)N2CCC(C)(C(=O)NCc3ccc4c(c3)OCO4)CC2)cc1 | 0% |

| Structure (SMILES) | % Inhibition |
| --- | --- |
| O=C(Nc1ccc(F)cc1F)[C@@H]1CCCN1C(=O)c1ccco1 | -1% |
| CN(C)c1ccc(-c2nc([C@H]3CCOC3)cs2)cc1 | 6% |
| O=C(CNC(=O)c1ccc(Br)cc1)NC1CCCC1O (stereo unspecified) | -10% |
| CC(C)C(=O)NCC(=O)Nc1ccc(C(F)(F)F)cc1 | -15% |
| CC[C@H](C)N(CCC(=O)N1CCOCC1)C(=O)c1cc2n(n1)CCCN(Cc1ccccc1)C2=O | 1% |
| CCn1nc(-n2cnnc2)c(NS(=O)(=O)c2cccc(Cl)c2)c1C | -12% |
| CCCCC12CN(S(=O)(=O)c3ccccc3)CC(C)(CN(S(=O)(=O)c3ccccc3)C1)C2=O | -5% |
| CC1CCCCC1NC(=O)N1CCCC2(CC=CCC2)C1 (stereo unspecified) | 1% |
| Cc1ccccc1Cc1nnc2n1CCOC2 | -4% |
| Cc1nn(CC2CC2)c(=O)n1-c1ccc(F)cc1 | -16% |
| CC(C)C[C@H]1C(=O)NCCN1Cc1ncc(-c2ccccc2)o1 | -5% |
| CO[C@H]1CCOC2(CCN(C(=O)c3ccccc3F)CC2)C1 | -5% |
| C[C@H](C#N)CNc1ncc(Br)cn1 | 1% |
| Cc1noc(OCCc2ccccc2)n1 | 7% |
| COc1ccc(-c2cc(C[C@H]3CNCC[C@H]3CC(=O)Nc3ccccc3)no2)cc1 | -7% |
| Brc1cc(Br)c2nc(-c3cnccn3)ccc2c1 | 4% |
| Cc1ccc(C(=O)N(C(=O)c2ccc(C)cc2C)c2ccc(Br)cn2)c(C)c1 | -15% |
| Cn1cc(C(=O)c2nc(-c3ccccc3Cl)no2)cn1 | -6% |
| Cc1ccccc1[C@H]1CC(=O)Nc2c1c(C)nn2-c1nncc(-c2ccc(Cl)cc2)n1 | 16% |
| Cc1noc(CCNC(=O)N2CCCCC[C@H]2c2ccc(C)o2)n1 | -5% |
| COCc1ccc(C(=O)N(c2ccc(F)cn2)C2CCOCC2)cc1 | -8% |
| Clc1ccc(OCCNCCOc2ccc(Cl)cc2Cl)c(Cl)c1 | 1% |

| Structure (SMILES) | % Inhibition |
| --- | --- |
| CCOc1cc(N2CCOCC2)c(OCC)cc1NC(=O)c1ccc(C)c(NC(=O)c2ccco2)c1 | 22% |
| O=C1c2ccccc2N[C@]2(C(=O)Nc3ccccc32)N1c1ccc2c(c1)OCO2 | -6% |
| Oc1ccc(-c2nc(-c3c[nH]c4ccccc34)cs2)cc1 | 12% |
| CN1C2(c3ccccc3)C3C(=O)N(c4ccccc4)C(=O)C3C1(c1ccccc1)C1C(=O)N(c3ccccc3)C(=O)C12 (stereo unspecified) | 2% |
| COc1nc(C)nc2c(CN(C)C)c(C)[nH]c12 | -1% |
| Cc1noc(-c2ccc(C(C)(C)C)cc2)c1C(=O)NCCOc1ccccc1 | 11% |
| Cc1noc(C)c1S(=O)(=O)Nc1cc(-c2nnc3n2CCCCC3)c(F)cc1F | 1% |
| COc1ccc2c(O)cc(-c3ccccc3)nc2c1 | -2% |
| O=C(NC[C@H]1CCS(=O)(=O)C1)c1ccc2[nH]c3c(c2c1)CCCC3 | -6% |
| CCOc1cc(-c2nn3c([C@H]4CCCN(C)C4)nnc3s2)cc(OCC)c1OCC | -6% |
| CC1CC(Nc2ncnc3cc(Br)ccc23)CCN1C (stereo unspecified) | 96% |
| O=C(NC1CCCC1)N1CCN(S(=O)(=O)c2cccc(F)c2)CC1 | -10% |
| CCN(C(=O)CCn1cnc2ccccc2c1=O)c1ccc2[nH]ccc2c1 | 0% |
| CC1CC(N)CCN1C(=O)c1cccc(-c2noc(C3CC3)n2)c1 (stereo unspecified) | 2% |
| Cc1ccccc1S(=O)(=O)N1CCN(c2c(C)n(-c3ccccc3)c(=O)n(C)c2=O)CC1 | 1% |
| COc1ccccc1CNC(=O)c1cnn2c(-c3ccc(Cl)cc3)ccnc12 | -4% |
| C1CN(c2nc3nonc3nc2N2CCOCC2)CCO1 | -14% |
| C[C@@H](Cn1cc(Br)cn1)c1nnc(Nc2ccn(Cc3c(F)cccc3Cl)n2)s1 | 2% |
| Cc1cc(C)n(Cc2csc(C3CCCCC3)n2)n1 | -10% |
| Cc1cc(C)cc([C@@H](O)CNC(=O)NCC(C)(C)c2ccncc2)c1 | 1% |
| CC(=O)N(c1ccccc1)[C@H]1C[C@@H](C)N(C(=O)C(F)(F)F)c2ccccc21 | 9% |
| O=C(Nc1ccc2c(c1)OCO2)c1c(-c2ccc(Cl)cc2)nc2n1CCS2(=O)=O | -1% |

| Structure (SMILES) | % Inhibition |
| --- | --- |
| Cc1cnccc1NCCNC1CCN(c2ccc(Cl)cc2)CC1 | 99% |
| COc1ccccc1N1CCN(c2nc(Nc3ccc(F)cc3)c3nc[nH]c3n2)CC1 | -18% |
| CN(C(=O)c1ccc(OCC(F)(F)F)nc1)C1(C#N)CCC1 | 2% |
| CC1=NN(c2nc(C)cc(O)n2)C(=O)C1 | -15% |
| CN1N=C(C(=O)NC2CCC3CCCCC3C2)CCC1=O (stereo unspecified) | -11% |
| O=S(=O)(c1ccc(F)cc1)n1ccc(-c2cccc(OCc3ccc(Cl)cc3Cl)c2)n1 | -4% |
| Cc1ccc(NC(=O)CN2CCC3(CC2)NC(c2ccc(OC(F)(F)F)cc2)=NO3)c(C)c1 | -5% |
| CC1C(Cc2ccccc2)CCN1C(=O)c1cnc(C(F)(F)F)nc1 (stereo unspecified) | -1% |
| CN1CCN(S(=O)(=O)c2ccc(F)c(F)c2)C[C@H]1c1ccccc1 | 5% |
| Cc1nc(CNC(=O)Nc2ccc(Br)c(C)n2)no1 | 8% |
| COc1ccc(CNc2ncc(-c3ccc(C)c(C)c3)n2C)cc1OCc1ccccc1 | -11% |
| O=C(CNc1ccccc1N1CCCCC1)NC1CCCCCC1 | -7% |
| OC(CC1COCCN1)c1ccccc1 (stereo unspecified) | 3% |
| c1ccc(-c2cn(-c3ccccc3)c3ncnc(N4CCCC4)c23)cc1 | 8% |
| O=C(Nc1nc2ccccc2[nH]1)C1CCN(c2cc3c(nn2)CCC3)CC1 | 5% |
| Cc1ccc(-c2nn3c([C@H]4CCCN(C)C4)nnc3s2)cc1C | -6% |
| CC(C)CCO[C@@H](C)C(=O)NC1CCN(CC(=O)NC(C)C)CC1 | 8% |
| O=C(CN1CCC2(CC1)NC(=O)N(Cc1ccc(Cl)cc1)C2=O)Nc1ccc(F)cc1F | -1% |

Source: ChEMBL document CHEMBL4888484, “Replenishing the malaria drug discovery pipeline: Screening and hit evaluation of the MMV Hit Generation Library 1 (HGL1) against asexual blood stage Plasmodium falciparum ,using a nano luciferase reporter read-out” (2022)
